# Some of the results follow.
# B1: Surfactant Protein D (Human); Neck + Carbohydrate Recognition Domain (NCRD) (Homo sapiens) (protein)
# chain: MLLFLLSALVLLTQPLGYLEAEMKTYSHRTMPSACTLVMCSSVESGLPGRDRDGREGPRGEKGDPGLPGAAGQAGMPGQAGPVGPKGDNGSVGEPGPKGDTGPSGPPGPPGVPGPAGREGALGKQGNIGPQGKPGPKGEAGPKGEVGAPGMQGSAGARGLAGPKGERGVPGERGVPGNTGAAGSAGAMGPQGSPGARGPPGLKGDKGIPGDKGAKGESGLPDVASLRQQVEALQGQVQHLQAAFSQYKKVELFPNGQSVGEKIFKTAQFVKPFTEAQLLCTQAGGQLASPRSAAENAALQQLVVAKNEAAFLSMTDSKTEGKFTYPTGESLVYSNWAPGEPNDDGGSEDCVEIFTNGKWNDKACGEKRLVVCEF
# Assays:
# Test in all cases: glycan array binding signal (z-score within array); higher = stronger binding
# Details in all cases: glycan notation: IUPAC condensed, linker removed; mutation: R343K
# [1] = biological target: GlcNAc(b1-3)Gal(b1-4)Glc
# Procedure, shortened: (§1)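 Arrays were curated from the Consortium for Functional Glycomics database, 3228 in total, and kept only where the protein sequence was available. Binding is expressed as a within-array Z-score. This score was averaged across arrays of the same protein sequence at different concentrations or buffers and across linkers, and negative values can be read as non-binding.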
# [2] = biological target: GlcNAc(b1-3)Gal(b1-4)GlcNAc
# Procedure, shortened: as §1
# [3] = biological target: GlcNAc(b1-3)Gal(b1-4)GlcNAc(b1-3)Gal(b1-4)GlcNAc
# Procedure, shortened: as §1
# [4] = biological target: GlcNAc(b1-3)GalNAc
# Procedure, shortened: as §1
# [5] = biological target: GlcNAc(b1-3)Man
# Procedure, shortened: as §1
# [6] = biological target: GlcNAc(b1-3)[GlcNAc(b1-4)][GlcNAc(b1-6)]GlcNAc
# Procedure, shortened: as §1
# [7] = biological target: GlcNAc(b1-3)[GlcNAc(b1-6)]Gal(b1-4)GlcNAc
# Procedure, shortened: as §1
# [8] = biological target: GlcNAc(b1-3)[GlcNAc(b1-6)]GalNAc
# Procedure, shortened: as §1
# [9] = biological target: GlcNAc(b1-4)Gal(b1-4)GlcNAc
# Procedure, shortened: as §1
# [10] = biological target: GlcNAc(b1-4)GlcNAc
# Procedure, shortened: as §1
# [11] = biological target: GlcNAc(b1-4)GlcNAc(b1-4)GlcNAc
# Procedure, shortened: as §1
# [12] = biological target: GlcNAc(b1-4)GlcNAc(b1-4)GlcNAc(b1-4)GlcNAc(b1-4)GlcNAc
# Procedure, shortened: as §1
# [13] = biological target: GlcNAc(b1-4)GlcNAc(b1-4)GlcNAc(b1-4)GlcNAc(b1-4)GlcNAc(b1-4)GlcNAc
# Procedure, shortened: as §1
# [14] = biological target: GlcNAc(b1-4)[GlcNAc(b1-6)]GalNAc
# Procedure, shortened: as §1
# [15] = biological target: GlcNAc(b1-6)Gal(b1-4)GlcNAc
# Procedure, shortened: as §1
# [16] = biological target: GlcNAc(b1-6)GalNAc
# Procedure, shortened: as §1
# [17] = biological target: GlcNAc3Prop(b1-4)GlcNAc
# Procedure, shortened: as §1
# [18] = biological target: Kdn(a2-3)Gal(b1-3)GlcNAc
# Procedure, shortened: as §1
# [19] = biological target: Kdn(a2-3)Gal(b1-4)GlcNAc
# Procedure, shortened: as §1
# [20] = biological target: Man(a1-2)Man(a1-2)Man(a1-3)Man
# Procedure, shortened: as §1
# [21] = biological target: Man(a1-2)Man(a1-2)Man(a1-6)[Man(a1-3)]Man
# Procedure, shortened: as §1
# [22] = biological target: Man(a1-2)Man(a1-3)Man
# Procedure, shortened: as §1
# [23] = biological target: Man(a1-2)Man(a1-3)[Man(a1-2)Man(a1-6)]Man
# Procedure, shortened: as §1
# [24] = biological target: Man(a1-2)Man(a1-3)[Man(a1-2)Man(a1-6)]Man(a1-6)[Man(a1-2)Man(a1-2)Man(a1-3)]Man
# Procedure, shortened: as §1
# [25] = biological target: Man(a1-2)Man(a1-3)[Man(a1-2)Man(a1-6)]Man(a1-6)[Man(a1-2)Man(a1-2)Man(a1-3)]Man(b1-4)GlcNAc(b1-4)GlcNAc
# Procedure, shortened: as §1
# [26] = biological target: Man(a1-2)Man(a1-3)[Man(a1-6)]Man(a1-6)[Man(a1-2)Man(a1-3)]Man(b1-4)GlcNAc(b1-4)GlcNAc
# Procedure, shortened: as §1
# [27] = biological target: Man(a1-2)Man(a1-6)[Man(a1-3)]Man(a1-6)[Man(a1-2)Man(a1-2)Man(a1-3)]Man
# Procedure, shortened: as §1
# [28] = biological target: Man(a1-2)Man(a1-6)[Man(a1-3)]Man(a1-6)[Man(a1-2)Man(a1-2)Man(a1-3)]Man(b1-4)GlcNAc(b1-4)GlcNAc
# Procedure, shortened: as §1
# [29] = biological target: Man(a1-3)[Man(a1-6)]Man
# Procedure, shortened: as §1
# [30] = biological target: Man(a1-3)[Man(a1-6)]Man(a1-6)[Man(a1-2)Man(a1-3)]Man(b1-4)GlcNAc(b1-4)GlcNAc
# Procedure, shortened: as §1
# [31] = biological target: Man(a1-3)[Man(a1-6)]Man(a1-6)[Man(a1-3)]Man
# Procedure, shortened: as §1
# [32] = biological target: Man(a1-3)[Man(a1-6)]Man(a1-6)[Man(a1-3)]Man(b1-4)GlcNAc(b1-4)GlcNAc
# Procedure, shortened: as §1
# [33] = biological target: Man(a1-3)[Man(a1-6)]Man(b1-4)GlcNAc(b1-4)GlcNAc
# Procedure, shortened: as §1
# [34] = biological target: Man(a1-6)Man
# Procedure, shortened: as §1
# [35] = biological target: Man(b1-4)GlcNAc
# Procedure, shortened: as §1
# [36] = biological target: Neu5Ac(a2-3)Gal
# Procedure, shortened: as §1
# [37] = biological target: Neu5Ac(a2-3)Gal(b1-3)GalNAc
# Procedure, shortened: as §1
# [38] = biological target: Neu5Ac(a2-3)Gal(b1-3)GalNAc(b1-3)Gal(a1-4)Gal(b1-4)Glc
# Procedure, shortened: as §1
# [39] = biological target: Neu5Ac(a2-3)Gal(b1-3)GalNAc(b1-3)Gal(b1-4)GlcNAc
# Procedure, shortened: as §1
# [40] = biological target: Neu5Ac(a2-3)Gal(b1-3)GalNAc(b1-4)[Neu5Ac(a2-3)]Gal(b1-4)Glc
# Procedure, shortened: as §1
# [41] = biological target: Neu5Ac(a2-3)Gal(b1-3)GalNAc6S
# Procedure, shortened: as §1
# [42] = biological target: Neu5Ac(a2-3)Gal(b1-3)GlcNAc
# Procedure, shortened: as §1
# [43] = biological target: Neu5Ac(a2-3)Gal(b1-3)GlcNAc(b1-3)Gal(b1-3)GlcNAc
# Procedure, shortened: as §1
# [44] = biological target: Neu5Ac(a2-3)Gal(b1-3)GlcNAc6S
# Procedure, shortened: as §1
# [45] = biological target: Neu5Ac(a2-3)Gal(b1-3)[Fuc(a1-4)]GlcNAc
# Procedure, shortened: as §1
binder,measurement,setting,value
B1,glycan array binding signal (z-score),[1],-0.149
same,glycan array binding signal (z-score),[2],-0.153
same,glycan array binding signal (z-score),[3],-0.145
same,glycan array binding signal (z-score),[4],-0.152
same,glycan array binding signal (z-score),[5],-0.151
same,glycan array binding signal (z-score),[6],-0.156
same,glycan array binding signal (z-score),[7],-0.156
same,glycan array binding signal (z-score),[8],-0.155
same,glycan array binding signal (z-score),[9],-0.147
same,glycan array binding signal (z-score),[10],-0.152
same,glycan array binding signal (z-score),[11],-0.15
same,glycan array binding signal (z-score),[12],-0.153
same,glycan array binding signal (z-score),[13],-0.16
same,glycan array binding signal (z-score),[14],-0.157
same,glycan array binding signal (z-score),[15],-0.148
same,glycan array binding signal (z-score),[16],-0.155
same,glycan array binding signal (z-score),[17],-0.156
same,glycan array binding signal (z-score),[18],-0.153
same,glycan array binding signal (z-score),[19],-0.15
same,glycan array binding signal (z-score),[20],-0.091
same,glycan array binding signal (z-score),[21],-0.133
same,glycan array binding signal (z-score),[22],4.08
same,glycan array binding signal (z-score),[23],5.42
same,glycan array binding signal (z-score),[24],10.9
same,glycan array binding signal (z-score),[25],0.077
same,glycan array binding signal (z-score),[26],5.1
same,glycan array binding signal (z-score),[27],1.64
same,glycan array binding signal (z-score),[28],2.4
same,glycan array binding signal (z-score),[29],-0.152
same,glycan array binding signal (z-score),[30],7.96
same,glycan array binding signal (z-score),[31],5.92
same,glycan array binding signal (z-score),[32],-0.135
same,glycan array binding signal (z-score),[33],-0.156
same,glycan array binding signal (z-score),[34],-0.146
same,glycan array binding signal (z-score),[35],-0.154
same,glycan array binding signal (z-score),[36],-0.156
same,glycan array binding signal (z-score),[37],-0.153
same,glycan array binding signal (z-score),[38],-0.155
same,glycan array binding signal (z-score),[39],-0.158
same,glycan array binding signal (z-score),[40],-0.151
same,glycan array binding signal (z-score),[41],-0.156
same,glycan array binding signal (z-score),[42],-0.142
same,glycan array binding signal (z-score),[43],-0.15
same,glycan array binding signal (z-score),[44],-0.153
same,glycan array binding signal (z-score),[45],-0.153

# — the supplement of paper PMC8728848
